Data taken from the supplement of paper PMC10369915.
Some of the results follow. Cut-off read from the data, not from the text of the source: active = 3.2 or more and inactive = the rest. Only a few entries rise above the background.

B1: CDK11B_Y449_YF (peptide)
chain: IEEGTYGVVFR
B2: CDK11B_Y453 (peptide)
chain: TYGVVYRAKDK
B3: CDK11B_Y453_V452A (peptide)
chain: TYGVAYRAKDK
B4: CDK13_Y351_P356A (peptide)
chain: GGSSPYSRRLA
B5: CDK13_Y399_L403F (peptide)
chain: RSRSPYSPVFR
B6: CDK13_Y415 (peptide)
chain: RSRSPYSSRHS
B7: CDK13_Y415_R410Q (peptide)
chain: QSRSPYSSRHS
B8: CDK13_Y716 (peptide)
chain: IGEGTYGQVYK
B9: CDK13_Y716_G717R (peptide)
chain: IGEGTYRQVYK
B10: CDK13_Y716_G717R_YF (peptide)
chain: IGEGTYRQVFK
B11: CDK13_Y716_YF (peptide)
chain: IGEGTYGQVFK
B12: CDK2_Y15 (peptide)
chain: IGEGTYGVVYK
B13: CDK2_Y15_Y15S_YF (peptide)
chain: IGEGTSGVVFK
B14: CDK2_Y15_YF (peptide)
chain: IGEGTYGVVFK
B15: CDK2_Y19_V18L_YF (peptide)
chain: TFGVLYKARNK
B16: CDK5_Y15 (peptide)
chain: IGEGTYGTVFK
B17: CDK5_Y15_G16R (peptide)
chain: IGEGTYRTVFK
B18: CDKL5_Y177 (peptide)
chain: VATRWYRSPEL
B19: CDKL5_Y177_R175S (peptide)
chain: VATSWYRSPEL
B20: CDKL5_Y286 (peptide)
chain: DPADRYLTEQC
B21: CDKL5_Y286_C291Y (peptide)
chain: DPADRYLTEQY
B22: CDKL5_Y286_C291Y_YF (peptide)
chain: DPADRYLTEQF
B23: CDKL5_Y286_T288I (peptide)
chain: DPADRYLIEQC
B24: CDKN2A_Y44_I49S (peptide)
chain: NAPNSYGRRPS
B25: CDKN2A_Y44_I49T (peptide)
chain: NAPNSYGRRPT
B26: CDKN2A_Y44_P48L (peptide)
chain: NAPNSYGRRLI
B27: CEFIP_Y1332_G1337S (peptide)
chain: ALAAPYVLYPS
B28: CEFIP_Y1332_G1337S_YF (peptide)
chain: ALAAPYVLFPS
B29: CEFIP_Y1332_YF (peptide)
chain: ALAAPYVLFPG
B30: CEMIP2_Y1015_I1010V (peptide)
chain: VTRDEYPSNPM
B31: CENPF_Y1920 (peptide)
chain: EHEALYLEADL
B32: CENPF_Y700_M701V (peptide)
chain: TQKLAYVELQQ
B33: CEP152_Y268 (peptide)
chain: ERQIRYLNHQL
B34: CEP43_Y267_K271N (peptide)
chain: KPEKTYGLRNE
B35: CFAP410_Y68_R73P (peptide)
chain: RLSELYLRRNP
B36: CFAP58_Y501_S496T (peptide)
chain: TDRNLYSKNLV
B37: CFH_Y1008_V1007I (peptide)
chain: EKKDIYKAGEQ

Each binder was assayed against SHP2 C-SH2 domain E139D (assay: enrichment score (SH2-bound / input frequency) (ratio); bacterial display of known human phosphotyrosine sites (pTyr-Var adds point mutants) read by sequencing; higher = stronger binding; tyrosines were phosphorylated by kinases first). Conditions: peptide library: pTyr-Var.
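Note: displayed peptides selected on beads carrying the immobilized SH2 domain, with library peptides lacking any tyrosine serving as negative controls.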

| Binder | enrichment score |
| --- | --- |
| B1 | inactive: 0.944 |
| B2 | inactive: 0.461 |
| B3 | inactive: 0.677 |
| B4 | inactive: 0.246 |
| B5 | inactive: 0.348 |
| B6 | inactive: 0.255 |
| B7 | inactive: 0.632 |
| B8 | inactive: 1.02 |
| B9 | inactive: 0.847 |
| B10 | inactive: 1.01 |
| B11 | inactive: 0.786 |
| B12 | inactive: 0.91 |
| B13 | inactive: 0.665 |
| B14 | inactive: 1.17 |
| B15 | inactive: 0.531 |
| B16 | inactive: 0.672 |
| B17 | inactive: 0.751 |
| B18 | inactive: 0.913 |
| B19 | inactive: 1.05 |

| Binder | enrichment score |
| --- | --- |
| B20 | inactive: 0.575 |
| B21 | inactive: 0.682 |
| B22 | inactive: 0.696 |
| B23 | inactive: 0.623 |
| B24 | inactive: 0.295 |
| B25 | inactive: 0.294 |
| B26 | inactive: 0.427 |
| B27 | inactive: 0.905 |
| B28 | inactive: 1.05 |
| B29 | inactive: 0.848 |
| B30 | inactive: 0.633 |
| B31 | inactive: 0.764 |
| B32 | inactive: 1.08 |
| B33 | inactive: 0.804 |
| B34 | inactive: 0.67 |
| B35 | inactive: 0.239 |
| B36 | inactive: 0.583 |
| B37 | inactive: 0.456 |

These binders were tested against SHP2 C-SH2 domain wild-type in the same assay as above. Conditions: peptide library: pTyr-Var.

| Binder | enrichment score |
| --- | --- |
| B1 | inactive: 0.944 |
| B2 | inactive: 0.393 |
| B3 | inactive: 0.59 |
| B4 | inactive: 0.229 |
| B5 | inactive: 0.348 |
| B6 | inactive: 0.219 |
| B7 | inactive: 0.63 |
| B8 | inactive: 0.842 |
| B9 | inactive: 0.553 |
| B10 | inactive: 0.791 |
| B11 | inactive: 0.688 |
| B12 | inactive: 0.764 |
| B13 | inactive: 0.616 |
| B14 | inactive: 1.03 |
| B15 | inactive: 0.42 |
| B16 | inactive: 0.88 |
| B17 | inactive: 0.896 |
| B18 | inactive: 0.935 |
| B19 | inactive: 0.897 |

| Binder | enrichment score |
| --- | --- |
| B20 | inactive: 0.577 |
| B21 | inactive: 0.582 |
| B22 | inactive: 0.765 |
| B23 | inactive: 0.932 |
| B24 | inactive: 0.254 |
| B25 | inactive: 0.178 |
| B26 | inactive: 0.34 |
| B27 | inactive: 0.923 |
| B28 | inactive: 1.13 |
| B29 | inactive: 0.757 |
| B30 | inactive: 0.615 |
| B31 | inactive: 0.683 |
| B32 | inactive: 1.32 |
| B33 | inactive: 0.685 |
| B34 | inactive: 0.689 |
| B35 | inactive: 0.174 |
| B36 | inactive: 0.625 |
| B37 | inactive: 0.427 |

These binders were tested against SHP2 N-SH2 domain L43F in the same assay as above. Conditions: peptide library: pTyr-Var.

| Binder | enrichment score |
| --- | --- |
| B1 | inactive: 0.812 |
| B2 | inactive: 0.227 |
| B3 | inactive: 0.428 |
| B4 | inactive: 0.254 |
| B5 | inactive: 0.338 |
| B6 | inactive: 0.363 |
| B7 | inactive: 0.402 |
| B8 | inactive: 1.17 |
| B9 | inactive: 0.591 |
| B10 | inactive: 0.919 |
| B11 | inactive: 0.756 |
| B12 | inactive: 0.713 |
| B13 | inactive: 0.495 |
| B14 | inactive: 0.795 |
| B15 | inactive: 0.396 |
| B16 | inactive: 0.686 |
| B17 | inactive: 0.546 |
| B18 | inactive: 0.791 |
| B19 | inactive: 0.883 |

| Binder | enrichment score |
| --- | --- |
| B20 | inactive: 0.546 |
| B21 | inactive: 0.609 |
| B22 | inactive: 0.725 |
| B23 | inactive: 0.776 |
| B24 | inactive: 0.406 |
| B25 | inactive: 0.191 |
| B26 | inactive: 0.341 |
| B27 | inactive: 0.865 |
| B28 | inactive: 0.884 |
| B29 | inactive: 0.945 |
| B30 | inactive: 0.607 |
| B31 | inactive: 0.757 |
| B32 | active: 4.42 |
| B33 | inactive: 0.722 |
| B34 | inactive: 0.566 |
| B35 | inactive: 0.176 |
| B36 | inactive: 0.521 |
| B37 | inactive: 0.434 |

These binders were tested against SHP2 N-SH2 domain T42A in the same assay as above. Conditions: peptide library: pTyr-Var.

| Binder | enrichment score |
| --- | --- |
| B1 | inactive: 0.522 |
| B2 | inactive: 0.427 |
| B3 | inactive: 0.396 |
| B4 | inactive: 0.245 |
| B5 | inactive: 0.381 |
| B6 | inactive: 0.315 |
| B7 | inactive: 0.335 |
| B8 | inactive: 0.688 |
| B9 | inactive: 0.579 |
| B10 | inactive: 0.771 |
| B11 | inactive: 0.675 |
| B12 | inactive: 0.684 |
| B13 | inactive: 0.638 |
| B14 | inactive: 1.04 |
| B15 | inactive: 0.538 |
| B16 | inactive: 0.749 |
| B17 | inactive: 0.724 |
| B18 | inactive: 0.838 |
| B19 | inactive: 0.965 |

| Binder | enrichment score |
| --- | --- |
| B20 | inactive: 0.466 |
| B21 | inactive: 0.534 |
| B22 | inactive: 0.695 |
| B23 | inactive: 0.603 |
| B24 | inactive: 0.233 |
| B25 | inactive: 0.239 |
| B26 | inactive: 0.366 |
| B27 | inactive: 0.797 |
| B28 | inactive: 0.905 |
| B29 | inactive: 0.798 |
| B30 | inactive: 0.56 |
| B31 | inactive: 0.838 |
| B32 | active: 8.39 |
| B33 | inactive: 0.892 |
| B34 | inactive: 0.487 |
| B35 | inactive: 0.178 |
| B36 | inactive: 0.57 |
| B37 | inactive: 0.646 |

The binders below were run against SHP2 N-SH2 domain T52S in the same assay as above. Conditions: peptide library: pTyr-Var.

| Binder | enrichment score |
| --- | --- |
| B1 | inactive: 0.764 |
| B2 | inactive: 0.399 |
| B3 | inactive: 0.697 |
| B4 | inactive: 0.261 |
| B5 | inactive: 0.333 |
| B6 | inactive: 0.284 |
| B7 | inactive: 0.529 |
| B8 | inactive: 1.13 |
| B9 | inactive: 0.772 |
| B10 | inactive: 0.879 |
| B11 | inactive: 0.78 |
| B12 | inactive: 0.885 |
| B13 | inactive: 0.57 |
| B14 | inactive: 0.987 |
| B15 | inactive: 0.423 |
| B16 | inactive: 0.796 |
| B17 | inactive: 0.669 |
| B18 | inactive: 0.823 |
| B19 | inactive: 1.03 |

| Binder | enrichment score |
| --- | --- |
| B20 | inactive: 0.508 |
| B21 | inactive: 0.524 |
| B22 | inactive: 0.784 |
| B23 | inactive: 0.7 |
| B24 | inactive: 0.274 |
| B25 | inactive: 0.275 |
| B26 | inactive: 0.429 |
| B27 | inactive: 0.783 |
| B28 | inactive: 0.946 |
| B29 | inactive: 0.959 |
| B30 | inactive: 0.493 |
| B31 | inactive: 0.623 |
| B32 | active: 4.84 |
| B33 | inactive: 0.776 |
| B34 | inactive: 0.743 |
| B35 | inactive: 0.187 |
| B36 | inactive: 0.627 |
| B37 | inactive: 0.557 |

These binders were tested against SHP2 N-SH2 domain wild-type in the same assay as above. Conditions: peptide library: pTyr-Var.

| Binder | enrichment score |
| --- | --- |
| B1 | inactive: 0.829 |
| B2 | inactive: 0.538 |
| B3 | inactive: 0.325 |
| B4 | inactive: 0.267 |
| B5 | inactive: 0.281 |
| B6 | inactive: 0.145 |
| B7 | inactive: 0.333 |
| B8 | inactive: 0.942 |
| B9 | inactive: 0.812 |
| B10 | inactive: 1.39 |
| B11 | inactive: 0.864 |
| B12 | inactive: 0.925 |
| B13 | inactive: 0.568 |
| B14 | inactive: 1.55 |
| B15 | inactive: 0.332 |
| B16 | inactive: 1.1 |
| B17 | inactive: 0.777 |
| B18 | inactive: 1.1 |
| B19 | inactive: 1.05 |

| Binder | enrichment score |
| --- | --- |
| B20 | inactive: 0.534 |
| B21 | inactive: 0.704 |
| B22 | inactive: 0.719 |
| B23 | inactive: 0.79 |
| B24 | inactive: 0.279 |
| B25 | inactive: 0.186 |
| B26 | inactive: 0.418 |
| B27 | inactive: 0.665 |
| B28 | inactive: 0.942 |
| B29 | inactive: 0.853 |
| B30 | inactive: 0.529 |
| B31 | inactive: 1.55 |
| B32 | inactive: 1.96 |
| B33 | inactive: 0.872 |
| B34 | inactive: 0.853 |
| B35 | inactive: 0.24 |
| B36 | inactive: 0.777 |
| B37 | inactive: 0.582 |
